{
  "source": "PubChem BioAssay AID687022",
  "about": "(Broad Institute, 2013)",
  "note": "Hit rate of the full screen: of about 1,000 compounds, about 360 (36%) were called active.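 The calls were made as follows: active = Fitted curve of melting temperature shift crosses the 1.0 threshold at or below the sample's highest valid tested concentration; inconclusive = Flat fit with activity 30 to 70, or invalid fit; inactive = Opposite direction, flat within 30, or no crossing.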 Most of the strongest results are missing from this list.",
  "data": [
    {"biological_target": "Fibroblast growth factor 22 (Homo sapiens) (UniProt Q9HCT0)", "sequence (Q9HCT0 whole entry, looked up)": "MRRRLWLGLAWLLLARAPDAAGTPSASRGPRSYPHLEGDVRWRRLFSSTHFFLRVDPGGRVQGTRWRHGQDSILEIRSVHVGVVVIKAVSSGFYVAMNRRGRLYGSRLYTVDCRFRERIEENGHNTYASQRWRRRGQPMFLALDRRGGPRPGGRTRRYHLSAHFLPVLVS", "experiment": "binders of human FGF22 protein, dose response, FGF22 synaptogenesis inhibitor project, biophysical, thermal shift, cherry-pick (AID 687022); also: reference of the scale not given here", "conditions": "recombinant FGF22 thermal shift, SYPRO orange melting; at 38 µM (top of the series) unless noted", "values": [
      {"smiles": "COc1ccc(CN(C)C[C@H]2Oc3ccc(NC(=O)Cc4ccccc4)cc3C(=O)N([C@H](C)CO)C[C@@H]2C)cc1", "Tm shift activity": "inactive: -0.264% [at 42 µM]"},
      {"smiles": "C[C@@H]1CN([C@H](C)CO)C(=O)CCCn2nncc2CO[C@H]1CN(C)S(=O)(=O)c1ccc(F)cc1", "Tm shift activity": "inactive: 0.2%"},
      {"smiles": "O=[N+]([O-])c1cccc(S(=O)(=O)Nc2ccc(S(=O)(=O)Nc3nccs3)cc2)c1", "Tm shift activity": "inactive: -0.075%"},
      {"smiles": "O=S(=O)(NC[C@H]1N[C@H](CO)[C@H]1c1ccccc1)c1ccccc1", "Tm shift activity": "inactive: -0.134%"},
      {"smiles": "O=C(C[C@@H]1C=C[C@H](NC(=O)Nc2cc(F)ccc2F)[C@H](CO)O1)Nc1ccc(-c2ccccc2)cc1", "Tm shift activity": "inactive: 0.09%"},
      {"smiles": "Cc1ccc(Cl)cc1NS(=O)(=O)c1ccc2c(c1)NC(=O)C(C)C(=O)N2", "note": "(centres undefined)", "Tm shift activity": "inactive: -0.254%"},
      {"smiles": "O=C(COc1ccc(S(=O)(=O)Nc2ccccc2)cc1)NCc1ccncc1", "Tm shift activity": "inactive: 0.021%"},
      {"smiles": "C[C@H](CO)N1C[C@H](C)[C@@H](CN(C)C(=O)Nc2ccc3c(c2)OCO3)Oc2c(NC(=O)c3cnccn3)cccc2C1=O", "Tm shift activity": "inactive: 0.216% [at 42 µM]"},
      {"smiles": "C/C(=N\\NC(=O)CNC(=O)c1ccncc1)c1ccc(C)cc1", "Tm shift activity": "inactive: -0.146%"},
      {"smiles": "CC(C)NC(=O)Nc1cccc2c1O[C@@H](CN(C)Cc1ccc(C(=O)Nc3ccccc3N)cc1)[C@@H](C)CN([C@H](C)CO)C2=O", "Tm shift activity": "inactive: -0.221%"},
      {"smiles": "Cc1ccc(-n2c(O)c(C=NC3CCS(=O)(=O)C3)c3ccccc3c2=O)cc1C", "note": "(centres undefined)", "Tm shift activity": "inactive: -0.046%"},
      {"smiles": "O=C(C[C@H]1CC[C@H]2[C@@H](COC[C@H](O)CN2Cc2nccs2)O1)NCc1ccccc1F", "Tm shift activity": "inactive: 0.031% [at 42 µM]"},
      {"smiles": "O=C(N[C@H]1CC[C@H](CCn2cc(C3(O)CCCC3)nn2)O[C@@H]1CO)C1CCCCC1", "Tm shift activity": "inactive: -0.187% [at 42 µM]"},
      {"smiles": "CCOc1ccc(NC(=O)c2cccc(-n3cccc3)c2)cc1S(=O)(=O)N1CCOCC1", "Tm shift activity": "inactive: 0.046%"},
      {"smiles": "COc1ccc(C(=O)N2C[C@@H]3[C@H](c4ccccc42)[C@@H](CO)N3Cc2ccccc2)cc1", "Tm shift activity": "inactive: -0.204% [at 42 µM]"},
      {"smiles": "C[C@H](CO)N1C[C@H](C)[C@@H](CN(C)C(=O)CN(C)C)Oc2cc(C3=CCCCC3)ccc2S1(=O)=O", "Tm shift activity": "inactive: 0.246% [at 42 µM]"},
      {"smiles": "O=C(Nc1ccc2c(c1)[C@@H]1C[C@H](CC(=O)N3CCCCC3)O[C@@H](CO)[C@@H]1O2)NC1CCCC1", "Tm shift activity": "inactive: -0.198%"},
      {"smiles": "Cn1ncc2c(Nc3ccc(O)cc3)nc(Cl)nc21", "Tm shift activity": "inactive: 0.599%"},
      {"smiles": "COCC(=O)Nc1ccc2c(c1)[C@H]1C[C@@H](CC(=O)NCCN3CCCCC3)O[C@H](CO)[C@H]1O2", "Tm shift activity": "inactive: 0.022%"},
      {"smiles": "O=C(O)c1cccc(-n2cc(-c3cccc(C(F)(F)F)c3)cn2)c1", "Tm shift activity": "inactive: 0.496% [at 5 µM]"},
      {"smiles": "O=C(Nc1ccccc1F)N1[C@H](CO)[C@H]2c3ccccc3NC[C@H]21", "Tm shift activity": "inactive: 0.101% [at 42 µM]"},
      {"smiles": "CC(=O)N1[C@H](CO)[C@@H](c2ccccc2)C12CN(C(=O)Cc1ccccc1)C2", "Tm shift activity": "inactive: 0.293%"},
      {"smiles": "C[C@@H]1CN([C@H](C)CO)S(=O)(=O)c2ccc(C#CC3CC3)cc2O[C@H]1CN(C)C(=O)c1ccncc1", "Tm shift activity": "inactive: -0.481%"},
      {"smiles": "CC(C)NC(=O)N(C)C[C@H]1OCCCC[C@H](C)Oc2ccc(N(C)C)cc2C(=O)N([C@H](C)CO)C[C@H]1C", "Tm shift activity": "inactive: -0.324% [at 42 µM]"},
      {"smiles": "CC(C)C#Cc1cnc2c(c1)C(=O)N([C@@H](C)CO)C[C@H](C)[C@H](CN(C)C(=O)c1cnccn1)O2", "Tm shift activity": "inactive: -0.148% [at 42 µM]"},
      {"smiles": "O=C(Nc1nnc(-c2ccccc2F)s1)c1ccccc1F", "Tm shift activity": "inactive: 0.215%"},
      {"smiles": "CO[C@@H]1CN(C)C(=O)c2ccc(NC(=O)C3CC3)cc2OC[C@H](C)N(C(=O)CN2CCOCC2)C[C@@H]1C", "Tm shift activity": "inactive: -0.167%"},
      {"smiles": "COc1ccc(-n2nnnc2/C=C\\Nc2ccc(C)cc2)cc1", "Tm shift activity": "inactive: 0.301%"},
      {"smiles": "O=C1COc2ccc(S(=O)(=O)N3CCCC3)cc2N1", "Tm shift activity": "inactive: -0.074%"},
      {"smiles": "O=C(Nc1ccc(Cl)cc1)N1C[C@@H]2[C@H](c3ccccc31)[C@H](CO)N2C(=O)C1CC1", "Tm shift activity": "inactive: 0.135%"},
      {"smiles": "O=C(C[C@H]1CC[C@@H]2[C@H](COC[C@@H](O)CN2Cc2nccs2)O1)NCc1ccccc1F", "Tm shift activity": "inactive: 0.024% [at 42 µM]"},
      {"smiles": "COc1ccc(OC)c(NC(=O)NNC(=O)CCCOc2ccc(Cl)cc2C)c1", "Tm shift activity": "inactive: 0.596%"},
      {"smiles": "CO[C@H](CN(C)S(=O)(=O)c1cccc(Cl)c1)[C@H](C)CN([C@@H](C)CO)S(=O)(=O)c1cccc(Cl)c1", "Tm shift activity": "inactive: 0.223% [at 42 µM]"},
      {"smiles": "O=C(C[C@@H]1CC[C@H]2[C@@H](COC[C@@H](O)CN2Cc2cccc(C(F)(F)F)c2)O1)NCc1ccncc1", "Tm shift activity": "inactive: -0.188%"},
      {"smiles": "CCOC(=O)[C@@H]1[C@H]2COc3cc(OC)ccc3[C@H]2N2C(=O)N(c3ccc(C)cc3)C(=O)[C@]12C", "Tm shift activity": "inactive: -0.261%"},
      {"smiles": "Cc1ccccc1-c1ccccc1[C@H]1[C@@H](CO)N(C(=O)c2ccccc2)[C@H]1C#N", "Tm shift activity": "inactive: 0.238% [at 42 µM]"},
      {"smiles": "CC(=O)NC[C@@H]1[C@@H](c2ccccc2)[C@@H](CO)N1C(=O)Cc1cccnc1", "Tm shift activity": "inactive: -0.004% [at 42 µM]"},
      {"smiles": "CC(C)NC(=O)N[C@H]1CC[C@@H](CC(=O)O)O[C@@H]1CO", "Tm shift activity": "inactive: -0.134% [at 42 µM]"},
      {"smiles": "CCc1ccc2nc(N)sc2c1", "Tm shift activity": "inactive: 0.106%"},
      {"smiles": "COCCNC(=O)c1cccc2c(-c3cnn(C)c3)coc12", "Tm shift activity": "inactive: -0.313%"},
      {"smiles": "CC(C)NC(=O)N(C)C[C@@H]1Oc2c(NC(=O)c3nc4ccccc4s3)cccc2C(=O)N([C@H](C)CO)C[C@H]1C", "Tm shift activity": "inactive: 0.053% [at 42 µM]"},
      {"smiles": "COc1cc(NC(=O)c2ccc3c(c2)OCO3)ccc1NC(=O)c1cccs1", "Tm shift activity": "inactive: 0.52%"},
      {"smiles": "Cc1ccc(S(=O)(=O)Nc2ccc3c(c2)CC(=O)N([C@@H](C)CO)C[C@H](C)[C@@H](CN(C)S(C)(=O)=O)O3)cc1", "Tm shift activity": "inactive: -0.143%"},
      {"smiles": "Cc1cc(C(=O)Nc2cccc3c2O[C@@H](CN(C)C(=O)NC2CCCCC2)[C@@H](C)CN([C@H](C)CO)C3=O)n(C)n1", "Tm shift activity": "inactive: -0.109%"}
    ]}
  ]
}
